# In the supplement of paper PMC8728848:
# Some of the results follow.
# B1: MIC1 (Toxoplasma gondii), O00834 (protein)
# chain: VGPEAYGEASHSHSPASGRYIQQMLDQRCQEIAAELCQSGLRKMCVPSSRIVARNAVGITHQNTLQWRCFDTASLLESNQENNGVNCVDDCGHTIPCPGGVHRQNSNHATRHEILSKLVEEGVQRFCSPYQASANKYCNDKFPGTIARRSKGFGNNVEVAWRCYEKASLLYSVYAECASNCGTTWYCPGGRRGTSTELDKRHYTEEEGIRQAIGSVDSPCSEVEVCLPKDENPPLCLDESGQISRT
# What was measured:
# Experiment in all cases: glycan array binding signal (z-score within array); higher = stronger binding
# Details in all cases: glycan notation: IUPAC condensed, linker removed
# [1] = target: Gal(b1-4)GlcNAc(b1-3)Gal(b1-4)GlcNAc(b1-3)Gal(b1-4)Glc
# How it was run: (§1)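 Glycan array binding is given as a within-array Z-score, which can be read as non-binding when negative. The arrays, 3228 of them, came from the Consortium for Functional Glycomics database and were retained only where the protein sequence was available. Z-scores were averaged across arrays of the same protein sequence at different concentrations or buffers and across linkers.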
# [2] = target: Gal(b1-4)GlcNAc(b1-3)[Fuc(a1-3)[Gal(b1-4)]GlcNAc(b1-6)]Gal(b1-4)Glc
# How it was run: as §1
# [3] = target: Gal(b1-4)GlcNAc(b1-3)[Gal(b1-4)GlcNAc(b1-6)]Gal(b1-4)Glc
# How it was run: as §1
# [4] = target: Gal(b1-4)GlcNAc(b1-3)[Gal(b1-4)GlcNAc(b1-6)]Gal(b1-4)GlcNAc(b1-3)Gal(b1-4)Glc
# How it was run: as §1
# [5] = target: Gal(b1-4)GlcNAc(b1-3)[Gal(b1-4)GlcNAc(b1-6)]Gal(b1-4)GlcNAc(b1-3)[Gal(b1-4)GlcNAc(b1-6)]Gal(b1-4)GlcNAc(b1-3)Gal(b1-4)Glc
# How it was run: as §1
# [6] = target: Gal(b1-4)GlcNAc(b1-3)[Gal(b1-4)GlcNAc(b1-6)]Gal(b1-4)GlcNAc(b1-3)[Gal(b1-4)GlcNAc(b1-6)]Gal(b1-4)GlcNAc(b1-3)[Gal(b1-4)GlcNAc(b1-6)]Gal(b1-4)GlcNAc(b1-3)Gal(b1-4)Glc
# How it was run: as §1
# [7] = target: Gal(b1-4)GlcNAc(b1-3)[Gal(b1-4)GlcNAc(b1-6)]Gal(b1-4)GlcNAc(b1-3)[Gal(b1-4)GlcNAc(b1-6)]Gal(b1-4)GlcNAc(b1-3)[Gal(b1-4)GlcNAc(b1-6)]Gal(b1-4)GlcNAc(b1-3)[Gal(b1-4)GlcNAc(b1-6)]Gal(b1-4)GlcNAc(b1-3)Gal(b1-4)Glc
# How it was run: as §1
# Gal(b1-6)GalNAc = target: Gal(b1-6)GalNAc
# How it was run: as §1
# [8] = target: Gal3S(b1-3)GalNAc(b1-4)Gal3S(b1-4)Glc
# How it was run: as §1
# [9] = target: Gal3S(b1-3)[Fuc(a1-4)]GlcNAc
# How it was run: as §1
# [10] = target: Gal3S(b1-3)[Fuc(a1-4)]GlcNAc(b1-3)Gal(b1-4)Glc
# How it was run: as §1
# Gal3S(b1-4)Glc = target: Gal3S(b1-4)Glc
# How it was run: as §1
# Gal3S(b1-4)GlcNAc = target: Gal3S(b1-4)GlcNAc
# How it was run: as §1
# [11] = target: Gal3S(b1-4)GlcNAc(b1-3)Gal
# How it was run: as §1
# [12] = target: Gal6S(b1-3)[Fuc(a1-4)]GlcNAc(b1-3)Gal(b1-4)Glc
# How it was run: as §1
# GalNAc(a1-3)Gal(b1-4)Glc = target: GalNAc(a1-3)Gal(b1-4)Glc
# How it was run: as §1
# GalNAc(a1-3)GalNAc = target: GalNAc(a1-3)GalNAc
# How it was run: as §1
# GalNAc(b1-4)Gal(b1-4)Glc = target: GalNAc(b1-4)Gal(b1-4)Glc
# How it was run: as §1
# [13] = target: GalNAc(b1-4)Gal3S(b1-4)Glc
# How it was run: as §1
# [14] = target: GalNAc3S(b1-4)Gal3S(b1-4)Glc
# How it was run: as §1
# Glc(a1-2)Glc = target: Glc(a1-2)Glc
# How it was run: as §1
# [15] = target: Glc(a1-2)Glc(a1-3)Glc(a1-3)Man(a1-2)Man(a1-2)Man(a1-3)[Man(a1-3)[Man(a1-6)]Man(a1-6)]Man(b1-4)GlcNAc
# How it was run: as §1
# Glc(a1-3)Glc = target: Glc(a1-3)Glc
# How it was run: as §1
# [16] = target: Glc(a1-3)Glc(a1-3)Man(a1-2)Man(a1-2)Man(a1-3)[Man(a1-2)Man(a1-3)[Man(a1-2)Man(a1-6)]Man(a1-6)]Man(b1-4)GlcNAc(b1-4)GlcNAc
# How it was run: as §1
# [17] = target: Glc(a1-3)Glc(a1-3)Man(a1-2)Man(a1-2)Man(a1-3)[Man(a1-3)[Man(a1-6)]Man(a1-6)]Man(b1-4)GlcNAc
# How it was run: as §1
# [18] = target: Glc(a1-3)Man(a1-2)Man(a1-2)Man(a1-3)[Man(a1-2)Man(a1-3)[Man(a1-2)Man(a1-6)]Man(a1-6)]Man(b1-4)GlcNAc(b1-4)GlcNAc
# How it was run: as §1
# Glc(a1-4)Glc = target: Glc(a1-4)Glc
# How it was run: as §1
# Glc(a1-4)Glc(a1-4)Glc = target: Glc(a1-4)Glc(a1-4)Glc
# How it was run: as §1
# [19] = target: Glc(a1-4)Glc(a1-4)Glc(a1-4)Glc
# How it was run: as §1
# [20] = target: Glc(a1-4)Glc(a1-4)Glc(a1-4)Glc(a1-4)Glc
# How it was run: as §1
# [21] = target: Glc(a1-4)Glc(a1-4)Glc(a1-4)Glc(a1-4)Glc(a1-4)Glc
# How it was run: as §1
# [22] = target: Glc(a1-4)Glc(a1-4)Glc(a1-4)Glc(a1-4)Glc(a1-4)Glc(a1-4)Glc
# How it was run: as §1
# [23] = target: Glc(a1-4)Glc(a1-4)Glc(a1-4)Glc(a1-4)Glc(a1-4)Glc(a1-4)Glc(a1-4)Glc
# How it was run: as §1
# [24] = target: Glc(a1-4)Glc(a1-4)Glc(a1-4)Glc(a1-4)Glc(a1-4)Glc(a1-4)Glc(a1-4)Glc(a1-4)Glc
# How it was run: as §1
# [25] = target: Glc(a1-4)Glc(a1-4)Glc(a1-4)Glc(a1-4)Glc(a1-4)Glc(a1-4)Glc(a1-4)Glc(a1-4)Glc(a1-4)Glc
# How it was run: as §1
# [26] = target: Glc(a1-4)Glc(a1-4)Glc(a1-4)Glc(a1-4)Glc(a1-4)Glc(a1-4)Glc(a1-4)Glc(a1-4)Glc(a1-4)Glc(a1-4)Glc
# How it was run: as §1
# [27] = target: Glc(a1-4)Glc(a1-4)Glc(a1-4)Glc(a1-4)Glc(a1-4)Glc(a1-4)Glc(a1-4)Glc(a1-4)Glc(a1-4)Glc(a1-4)Glc(a1-4)Glc
# How it was run: as §1
binder,measurement,setting,value
B1,glycan array binding signal (z-score),[1],-0.304
same,glycan array binding signal (z-score),[2],-0.312
same,glycan array binding signal (z-score),[3],-0.312
same,glycan array binding signal (z-score),[4],-0.288
same,glycan array binding signal (z-score),[5],-0.287
same,glycan array binding signal (z-score),[6],-0.287
same,glycan array binding signal (z-score),[7],-0.287
same,glycan array binding signal (z-score),Gal(b1-6)GalNAc,-0.299
same,glycan array binding signal (z-score),[8],-0.297
same,glycan array binding signal (z-score),[9],-0.312
same,glycan array binding signal (z-score),[10],-0.42
same,glycan array binding signal (z-score),Gal3S(b1-4)Glc,-0.312
same,glycan array binding signal (z-score),Gal3S(b1-4)GlcNAc,-0.287
same,glycan array binding signal (z-score),[11],-0.287
same,glycan array binding signal (z-score),[12],-0.461
same,glycan array binding signal (z-score),GalNAc(a1-3)Gal(b1-4)Glc,-0.302
same,glycan array binding signal (z-score),GalNAc(a1-3)GalNAc,-0.31
same,glycan array binding signal (z-score),GalNAc(b1-4)Gal(b1-4)Glc,-0.268
same,glycan array binding signal (z-score),[13],-0.287
same,glycan array binding signal (z-score),[14],-0.285
same,glycan array binding signal (z-score),Glc(a1-2)Glc,-0.307
same,glycan array binding signal (z-score),[15],-0.287
same,glycan array binding signal (z-score),Glc(a1-3)Glc,-0.287
same,glycan array binding signal (z-score),[16],-0.268
same,glycan array binding signal (z-score),[17],-0.287
same,glycan array binding signal (z-score),[18],-0.287
same,glycan array binding signal (z-score),Glc(a1-4)Glc,-0.31
same,glycan array binding signal (z-score),Glc(a1-4)Glc(a1-4)Glc,-0.312
same,glycan array binding signal (z-score),[19],-0.304
same,glycan array binding signal (z-score),[20],-0.287
same,glycan array binding signal (z-score),[21],-0.287
same,glycan array binding signal (z-score),[22],-0.287
same,glycan array binding signal (z-score),[23],-0.286
same,glycan array binding signal (z-score),[24],-0.287
same,glycan array binding signal (z-score),[25],-0.287
same,glycan array binding signal (z-score),[26],-0.287
same,glycan array binding signal (z-score),[27],-0.287
